± gives the standard deviation of the averaged measurements. Whole data set: some 4,100 sequences, median “relative kcat/Km (krel) vs genomic leader AAAGAU” near 1.7, cut for the highest 2% near 6.5. The entries are a selection whose mix differs from that of the whole data set.
Molecular target: T1, E. coli RNase P holoenzyme (M1 P RNA + rnpA protein) (UniProt P0A7Y8)
T1 sequence: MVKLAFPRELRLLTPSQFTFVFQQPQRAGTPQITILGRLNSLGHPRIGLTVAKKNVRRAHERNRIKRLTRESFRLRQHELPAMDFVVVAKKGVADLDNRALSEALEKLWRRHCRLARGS
Experiment: relative kcat/Km (krel) vs genomic leader AAAGAU (relative (reference leader = 1)); higher = faster RNase P cleavage
Protocol: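 HTS-Kin: a pool of ptRNA-Met (21C construct) with all 4096 combinations of 5' leader nucleotides N(-6) to N(-1) was processed in vitro by E. coli RNase P (P RNA + rnpA/C5 protein) under multiple-turnover conditions at 37 C, pH 8, 17.5 mM MgCl2. Residual substrate was Illumina-sequenced at several fractions reacted, and relative kcat/Km (krel) was computed by internal competition kinetics, calibrated to the genomic leader (AAAGAU = 1). The listed hexamer is the varied N(-6)..N(-1) leader (DNA letters), and it sits between a fixed 5' stem-loop flank (GCAUGCACGAAAGUGCGUGCUAUGAA) and the mature tRNA-Met starting GGCUACGUAGCUCAGUUGG. Two technical replicates are averaged.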

[1] = fraction of substrate reacted: ~9-10% (9.79% repeat 1, 9.1% repeat 2)
[2] = fraction of substrate reacted: ~13-16% (15.68% repeat 1, 13.17% repeat 2)
[3] = fraction of substrate reacted: ~26-29% (28.66% repeat 1, 26.4% repeat 2)

| Sequence | relative kcat/Km [1] | relative kcat/Km [2] | relative kcat/Km [3] |
| --- | --- | --- | --- |
| TCACCC | 2.5 ± 0.66 | 3.06 ± 1.3 | 3.96 ± 1.5 |
| AGTGTC | 0.63 ± 0.6 | 0.82 ± 0.16 | 0.814 ± 0.22 |
| TATGCG | – | 0.187 ± 0.093 | 1.16 ± 0.3 |
| GTAGAC | 2.16 ± 1 | 2.75 ± 0.35 | 3.99 ± 1.2 |
| TACTGG | – | – | 0.667 ± 0.43 |
| GCATCG | – | – | 0.878 ± 0.094 |
| AGTTCC | 3.25 ± 2.4 | 3.05 ± 0.096 | 4.18 ± 1.5 |
| GTCTGT | – | – | 2.58 ± 2 |
| GTATTC | 3.21 ± 1.9 | 2.98 ± 0.079 | 4.2 ± 1.5 |
| GAGGAG | – | – | 0.297 ± 0.24 |
| AGTTTC | 2.42 ± 0.73 | 3 ± 0.13 | 4.38 ± 1.6 |
| CGTATC | 1.67 ± 0.75 | 2.89 ± 0.43 | 3.65 ± 1.5 |
| CTGATC | 2.07 ± 0.34 | 1.61 ± 0.62 | 2.15 ± 0.27 |
| GACGAC | 3.35 ± 0.49 | 5.87 ± 1.6 | – |
| GGGCAT | 1.03 ± 0.31 | 1.51 ± 0.12 | 2.18 ± 0.97 |
| GGATCC | 1.23 ± 0.24 | 1.07 ± 0.62 | 1.62 ± 0.37 |
| AAGCGG | 0.584 ± 0.11 | 0.42 ± 0.41 | 0.735 ± 0.021 |
| CATGTT | 0.204 ± 0.0037 | 0.575 ± 0.33 | 0.884 ± 0.32 |
| TAAGAC | 1.72 ± 0.2 | 2.71 ± 1.3 | 3.73 ± 1.8 |
| GACCAT | 3.62 ± 2.1 | 3.91 ± 0.13 | 5.96 ± 1.9 |
| GCATTC | 1.27 ± 0.44 | 1.91 ± 0.57 | 3.19 ± 1.1 |
| TGGTCC | 0.659 ± 0.25 | 1.17 ± 1.2 | 1.18 ± 0.53 |
| ATGCAT | 0.782 ± 0.021 | 1.19 ± 0.42 | 2.14 ± 0.41 |
| GGCTGA | 1.83 ± 1.7 | 1.94 ± 0.094 | 2.86 ± 0.5 |
| TGTTAC | 3.59 ± 1.3 | 5.21 ± 1.2 | 8.19 ± 3.8 |
| GTGCTA | – | 0.879 ± 0.58 | 1.04 ± 0.27 |

| Sequence | relative kcat/Km [1] | relative kcat/Km [2] | relative kcat/Km [3] |
| --- | --- | --- | --- |
| TCCTGA | 3.23 ± 0.83 | 4.19 ± 0.42 | 6.6 ± 2.5 |
| GAATCA | 1.63 ± 1.6 | 1.59 ± 0.061 | 2.25 ± 0.76 |
| CAGAGA | 1.07 ± 0.6 | 1.55 ± 0.75 | 3.62 ± 1.4 |
| AACCAT | 2.62 ± 1.1 | 2.62 ± 0.3 | 4.77 ± 2 |
| ACCCTG | – | – | 1.17 ± 0.53 |
| CATCTC | 1.8 ± 0.31 | 2.05 ± 0.32 | 3.05 ± 1.3 |
| CGTCAG | 0.776 ± 0.25 | 1.34 ± 0.28 | 3.11 ± 0.5 |
| ATCGTG | – | – | 1.3 ± 0.35 |
| ATCGCA | 3.36 ± 1 | 4.58 ± 0.2 | 6.35 ± 2.8 |
| TGGGCA | 0.827 ± 0.12 | 0.859 ± 0.18 | 1.15 ± 0.75 |
| ATTTAG | – | 2.526 ± 0.01 | 3.82 ± 0.68 |
| CGGCTA | 1.21 ± 0.35 | 1.11 ± 0.062 | 0.879 ± 0.1 |
| ATGTAG | 1.92 ± 1.1 | 1.43 ± 0.22 | 2.74 ± 0.76 |
| TACAAG | 1.6 ± 0.23 | 2.38 ± 0.42 | 4.49 ± 1.9 |
| TGGCAA | – | 0.681 ± 0.35 | 0.838 ± 0.48 |
| ATGACA | 1.94 ± 1.6 | 1.85 ± 0.61 | 2.06 ± 0.28 |
| AAAAAC | 1.05 ± 0.17 | 1.97 ± 1 | 1.67 ± 0.46 |
| ACATTT | 2.32 ± 1.2 | 2.97 ± 0.19 | 4.45 ± 1.8 |
| AGTCCG | 1.69 ± 1.2 | 0.756 ± 0.66 | 2.06 ± 0.97 |
| GTAGGA | 0.316 ± 0.27 | 1.2 ± 0.63 | – |
| TCCCCC | 2.31 ± 1.4 | 3 ± 0.6 | 3.79 ± 1.1 |
| TCGTCT | 3 ± 0.94 | 2.99 ± 1.4 | 4.35 ± 1.2 |
| TGGCTA | 0.633 ± 0.28 | 1.26 ± 0.15 | 1.41 ± 0.82 |
| TAAGTA | 1.56 ± 1.1 | 1.45 ± 0.65 | 1.48 ± 0.18 |
| TGCCAA | 3.18 ± 1.1 | 2.55 ± 0.62 | 4.09 ± 1 |
| CCGAAC | 1.62 ± 0.75 | 2.83 ± 1.4 | 4.03 ± 1.8 |

| Sequence | relative kcat/Km [1] | relative kcat/Km [2] | relative kcat/Km [3] |
| --- | --- | --- | --- |
| TCTACC | 1.9 ± 0.076 | 1.85 ± 0.06 | 2.5 ± 0.46 |
| AAGAGA | 2.62 ± 1.4 | 1.51 ± 0.84 | 2.52 ± 0.37 |
| TACGTG | – | – | 1.61 ± 0.11 |
| TTGCGC | 1.02 ± 0.65 | 1.52 ± 0.27 | 1.65 ± 0.45 |
| TCCTGG | 0.344 ± 0.27 | 0.715 ± 0.34 | 1.15 ± 1.1 |
| TTCTCT | 4.43 ± 1.1 | 6.17 ± 1.4 | 8.57 ± 3.4 |
| AAGATC | 1.45 ± 0.21 | 1.835 ± 0.012 | 1.78 ± 0.69 |
| AACTCA | 2.48 ± 0.46 | 2.81 ± 0.56 | 4.08 ± 1.8 |
| GTGCTT | 1.55 ± 0.22 | 1.02 ± 0.63 | 1.27 ± 0.21 |
| CGGTCT | – | 1.03 ± 0.31 | 0.898 ± 0.63 |
| TCGATG | – | 0.916 ± 0.4 | 3.29 ± 0.25 |
| TCCCTC | 3.19 ± 1.3 | 3.57 ± 0.32 | 5.01 ± 1.9 |
| AGGGAT | 0.949 ± 0.63 | – | – |
| CGATGC | 2.88 ± 0.51 | 2.7 ± 1.8 | 4.03 ± 1.4 |
| CAAGGA | – | – | 0.779 ± 0.36 |
| GGTGCA | – | – | 0.609 ± 0.051 |
| TATCGG | – | 0.363 ± 0.061 | 1.3 ± 0.3 |
| AACACC | 3.17 ± 1.4 | 2.94 ± 0.64 | 4.21 ± 1.6 |
| GGGCCG | – | – | 0.42 ± 0.31 |
| TCCCAG | 2.48 ± 1.3 | 2.06 ± 0.1 | 4.74 ± 1.4 |
| CTTAAT | 2.56 ± 0.13 | 3.41 ± 0.8 | 5.38 ± 2.6 |
| AATGCT | 1.63 ± 1.4 | 0.886 ± 0.5 | 0.983 ± 0.32 |
| TTTACA | 2.51 ± 2.2 | 2.41 ± 0.58 | 2.93 ± 0.91 |
| CATTGC | 3.51 ± 1.1 | 4.2 ± 0.93 | 5.82 ± 2.3 |
| GTGACA | 0.872 ± 0.022 | 1.16 ± 0.38 | 1.53 ± 0.48 |
| CTGTAC | 3.93 ± 2.2 | 3.656 ± 0.015 | 4.79 ± 1.1 |

| Sequence | relative kcat/Km [1] | relative kcat/Km [2] | relative kcat/Km [3] |
| --- | --- | --- | --- |
| TTACGC | 2.51 ± 0.4 | 3.25 ± 1.1 | 4.77 ± 2 |
| CTCATC | 3.63 ± 1 | 4.57 ± 0.43 | 6.8 ± 2.4 |
| CACGCT | 1.83 ± 0.24 | 2.25 ± 0.6 | 3.03 ± 0.94 |
| GTTGGA | 0.956 ± 0.25 | 2 ± 0.62 | – |
| GCCTCC | 2.78 ± 1.2 | 3.32 ± 0.14 | 5.33 ± 1.8 |
| TGGACG | – | – | 0.596 ± 0.049 |
| ATGCGC | 0.675 ± 0.15 | 0.791 ± 0.3 | 1.11 ± 0.2 |
| GGACCG | – | – | 0.612 ± 0.45 |
| AAGCTA | 1.69 ± 0.35 | 1.593 ± 0.002 | 1.38 ± 0.4 |
| GGCCAA | 2.48 ± 1.8 | 1.68 ± 0.33 | 3.18 ± 0.54 |
| AATCTT | 1.82 ± 0.87 | 1.44 ± 0.29 | 2.29 ± 0.94 |
| CATCAG | 2.04 ± 1.4 | 1.57 ± 0.73 | 2.82 ± 0.74 |
| CCTGCC | 1.89 ± 0.58 | 1.842 ± 0.015 | 2.36 ± 1.3 |
| TCTTGT | 0.68 ± 0.17 | 1.94 ± 1.8 | 2.42 ± 2.2 |
| CTCTCT | 4.48 ± 1 | 4.84 ± 1.6 | 7.22 ± 3 |
| TCTATT | 1.94 ± 0.36 | 2.368 ± 0.0098 | 3.51 ± 1.6 |
| GCCTTG | – | 0.203 ± 0.08 | 1.62 ± 0.39 |
| TATCCG | – | – | 1.17 ± 0.061 |
| ATGTTT | 2.04 ± 0.38 | 1.82 ± 0.24 | 2.49 ± 0.97 |
| TAGCAG | – | – | 2.36 ± 0.19 |
| CTCGCA | 4.01 ± 1.4 | 4.94 ± 0.48 | 6.71 ± 2.1 |
| GATAGT | 0.65 ± 0.31 | – | – |
| GCATTG | – | – | 1.07 ± 0.15 |
| ACGTAC | 3.38 ± 1.4 | 4.04 ± 0.39 | 5.9 ± 2 |
| TTTGAT | 0.799 ± 0.12 | 1.01 ± 0.025 | 1.39 ± 0.26 |
| CAATGA | 2.38 ± 0.82 | 2.67 ± 0.87 | 4.37 ± 1.6 |

Reference: the supplement of paper PMC9433436
